Earlier results on 31 sequences are cited in article PMC11006913.

Conditions in all cases: PBM; conditions not shown; double strand, one strand shown; scale: upbm affinity estimate (log intensity, higher = more binding, comparable within an allelic series)
In data set [1] the target is HOXD13 I297V (Homo sapiens) (UniProt P35453).
Data set [2] deals with HOXD13 I322L (Homo sapiens) (UniProt P35453).
Data set [3] concerns the target HOXD13 N298S (Homo sapiens) (UniProt P35453).
Data set [4] has as its target HOXD13 Q325K (Homo sapiens) (UniProt P35453).
The target of data set [5] is HOXD13 Q325R (Homo sapiens) (UniProt P35453).
The target in data set [6] is HOXD13 R306W (Homo sapiens) (UniProt P35453).
The target of data set [7] is HOXD13 S316C (Homo sapiens) (UniProt P35453).

The list shows a part of the results.

For CCGGCCTC [8-mer CCGGCCTC], the binding signal is 9.41 in data set [1]; 9.36 in data set [2]; 9.42 in data set [3]; 9.39 in data set [4]; 9.36 in data set [5]; 9.28 in data set [6]. Moreover, the binding signal in data set [7] is 9.34.
Consider AGTTTATG [8-mer AGTTTATG], for which the binding signal is 12.3 in data set [1]; 11.1 in data set [2]; 12.5 in data set [3]; 10.9 in data set [4]; 11.5 in data set [5]; 11.4 in data set [6]. Moreover, the binding signal in data set [7] was 12.1.
Regarding CTATTAAC [8-mer CTATTAAC], the binding signal in data set [1] is 12.5; in data set [2] it was 11.8; in data set [3], 12.6; in data set [4] it was 11.2; in data set [5], 11.7; in data set [6] it was 11.6. Further, the binding signal in data set [7] is 12.3.
For the sequence AGTTTATA [8-mer AGTTTATA], the binding signal is 12.2 in data set [1]; 11.4 in data set [2]; 12.4 in data set [3]; 12.4 in data set [4]; 12.2 in data set [5]; 11.7 in data set [6]. In data set [7], the binding signal was 12.2.
CCCATAAA [8-mer CCCATAAA]: the binding signal in data set [1] was 12.9; in data set [2] it was 11.5; in data set [3], 13.2; in data set [4], 10.4; in data set [5], 11.2; in data set [6], 12.1. Besides, the binding signal in data set [7] was 12.8.
AATACATG [8-mer AATACATG]: the binding signal is 11.2 in data set [1]; 10.9 in data set [2]; 11.1 in data set [3]; 10.8 in data set [4]; 11.1 in data set [5]; 10.7 in data set [6]. In addition, the binding signal in data set [7] is 11.
Regarding ATTAATGG [8-mer ATTAATGG], the binding signal was 12.3 in data set [1]; 11.6 in data set [2]; 12.5 in data set [3]; 11.4 in data set [4]; 11.6 in data set [5]; 11.6 in data set [6]. In data set [7], the binding signal is 12.2.
With GAGGAGCC [8-mer GAGGAGCC], the binding signal in data set [1] was 9.57; in data set [2], 9.51; in data set [3] it was 9.57; in data set [4], 9.29; in data set [5], 9.36; in data set [6] it was 9.53. Moreover, in data set [7], the binding signal was 9.6.
Take GTCGTAAA [8-mer GTCGTAAA]: the binding signal in data set [1] is 12.7; in data set [2], 12.9; in data set [3], 13; in data set [4], 10.6; in data set [5], 11; in data set [6] it was 11.5. The binding signal in data set [7] is 12.7.
Turning to CGTGGGGC [8-mer CGTGGGGC], the binding signal was 9.34 in data set [1]; 9.35 in data set [2]; 9.19 in data set [3]; 9.51 in data set [4]; 9.24 in data set [5]; 9.34 in data set [6]. The binding signal in data set [7] was 9.36.
CTTTACGA [8-mer CTTTACGA]: the binding signal was 12.1 in data set [1]; 12.2 in data set [2]; 12.4 in data set [3]; 10.2 in data set [4]; 10.8 in data set [5]; 11.1 in data set [6]. The binding signal in data set [7] was 12.
For CTCATAAA [8-mer CTCATAAA], the binding signal is 12.9 in data set [1]; 11.6 in data set [2]; 13.3 in data set [3]; 10.7 in data set [4]; 12.3 in data set [5]; 12.2 in data set [6]. In addition, in data set [7], the binding signal is 12.9.
With CCCAGACC [8-mer CCCAGACC], the binding signal is 9.31 in data set [1]; 9.24 in data set [2]; 9.13 in data set [3]; 9.54 in data set [4]; 9.28 in data set [5]; 9.26 in data set [6]. Moreover, in data set [7], the binding signal was 9.22.
For the sequence GGGGGCCA [8-mer GGGGGCCA], the binding signal was 9.25 in data set [1]; 9.14 in data set [2]; 9.21 in data set [3]; 9.45 in data set [4]; 9.4 in data set [5]; 9.25 in data set [6]. The binding signal in data set [7] is 9.24.
For GCCCGGCC [8-mer GCCCGGCC], the binding signal in data set [1] was 9.59; in data set [2], 9.48; in data set [3], 9.54; in data set [4], 9.31; in data set [5], 9.36; in data set [6], 9.3. Moreover, in data set [7], the binding signal was 9.52.
As for CCAGGGGC [8-mer CCAGGGGC], the binding signal in data set [1] is 9.26; in data set [2], 9.07; in data set [3], 9.29; in data set [4], 9.33; in data set [5] it was 9.15; in data set [6] it was 9.25. Moreover, the binding signal in data set [7] is 9.13.
For the sequence CGGACCCC [8-mer CGGACCCC], the binding signal is 9.45 in data set [1]; 9.44 in data set [2]; 9.37 in data set [3]; 9.25 in data set [4]; 9.32 in data set [5]; 9.31 in data set [6]. In data set [7], the binding signal is 9.36.
Take CCATTAAA [8-mer CCATTAAA]: the binding signal in data set [1] was 12.4; in data set [2] it was 12.1; in data set [3] it was 12.6; in data set [4] it was 10.8; in data set [5] it was 11.1; in data set [6], 11.5. Besides, the binding signal in data set [7] was 12.1.
In the case of CCAAGGGC [8-mer CCAAGGGC], the binding signal is 9.67 in data set [1]; 9.5 in data set [2]; 9.53 in data set [3]; 9.75 in data set [4]; 9.59 in data set [5]; 9.47 in data set [6]. Moreover, the binding signal in data set [7] is 9.58.
As to CTGTAAAC [8-mer CTGTAAAC], the binding signal was 12 in data set [1]; 12 in data set [2]; 12.2 in data set [3]; 10.5 in data set [4]; 10.6 in data set [5]; 11.1 in data set [6]. Moreover, the binding signal in data set [7] is 11.8.
Regarding GCCCCCAA [8-mer GCCCCCAA], the binding signal in data set [1] was 9.57; in data set [2], 9.41; in data set [3], 9.54; in data set [4], 9.42; in data set [5], 9.24; in data set [6] it was 9.29. In addition, in data set [7], the binding signal was 9.49.
Turning to ATTTATGG [8-mer ATTTATGG], the binding signal was 12.6 in data set [1]; 11.4 in data set [2]; 12.8 in data set [3]; 10.8 in data set [4]; 11.3 in data set [5]; 11.8 in data set [6]. Besides, the binding signal in data set [7] is 12.5.
Take ATTAACGA [8-mer ATTAACGA]: the binding signal is 12.3 in data set [1]; 12.3 in data set [2]; 12.5 in data set [3]; 11.1 in data set [4]; 11.4 in data set [5]; 11.4 in data set [6]. For the same sequence, the binding signal in data set [7] was 12.1.
With GTAATAAA [8-mer GTAATAAA], the binding signal in data set [1] is 12.8; in data set [2], 11.6; in data set [3], 13; in data set [4], 11.5; in data set [5], 12.6; in data set [6] it was 11.9. In addition, the binding signal in data set [7] was 12.7.
For the sequence CCTGCCGC [8-mer CCTGCCGC], the binding signal in data set [1] was 9.3; in data set [2], 9.29; in data set [3], 9.2; in data set [4], 9.35; in data set [5], 9.3; in data set [6] it was 9.39. Also, the binding signal in data set [7] is 9.31.
For AGCGCTGC [8-mer AGCGCTGC], the binding signal is 9.54 in data set [1]; 9.54 in data set [2]; 9.44 in data set [3]; 9.35 in data set [4]; 9.52 in data set [5]; 9.47 in data set [6]. Also, in data set [7], the binding signal was 9.45.
Take GTTTACGA [8-mer GTTTACGA]: the binding signal is 12.6 in data set [1]; 12.7 in data set [2]; 12.8 in data set [3]; 10.4 in data set [4]; 11.1 in data set [5]; 11.6 in data set [6]. Also, the binding signal in data set [7] is 12.6.
As for CGCCTGCC [8-mer CGCCTGCC], the binding signal in data set [1] is 9.44; in data set [2], 9.37; in data set [3] it was 9.4; in data set [4], 9.62; in data set [5] it was 9.49; in data set [6], 9.44. Moreover, the binding signal in data set [7] was 9.35.
With CAATAAAC [8-mer CAATAAAC], the binding signal in data set [1] was 12.6; in data set [2], 11.1; in data set [3], 12.9; in data set [4], 10.7; in data set [5] it was 11.6; in data set [6], 11.9. For the same sequence, the binding signal in data set [7] was 12.7.
As for ATATAAAA [8-mer ATATAAAA], the binding signal in data set [1] is 12.4; in data set [2], 11.2; in data set [3] it was 12.6; in data set [4], 12.4; in data set [5], 12.5; in data set [6], 12. Besides, the binding signal in data set [7] was 12.2.
For the sequence CACATAAA [8-mer CACATAAA], the binding signal was 12.3 in data set [1]; 11.1 in data set [2]; 12.5 in data set [3]; 10.7 in data set [4]; 12 in data set [5]; 11.5 in data set [6]. For the same sequence, the binding signal in data set [7] is 12.
